Assay results as given in PubChem BioAssay AID493208 (National Center for Advancing Translational Sciences (NCATS), 2011).
Among all 44,000 compounds or so, about 340 (0.77%) were called active. About 5% were inconclusive and are not listed. Calls follow the shape of the dose curve; as a rule, active = well fitted inhibition curve with a large enough effect; inconclusive = small, poorly fitted or top-dose-only effect; inactive = flat fitted curve, though single readings scatter. This is one part of the list.

Test: Acumen qHTS Assay for Inhibitors of the mTORC1 Signaling Pathway in MEF (Tsc2-/-, p53-/-) Cells: Sytravon;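 also: plate controls were DMSO for no effect and rapamycin for full effect; nearly all actives have a fitted effect of over 50% in size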
Details: phospho-rpS6 immunofluorescence/PI, 24 h; series mostly up to 38.3 µM; activity change, negative = inhibition: at the top concentration
In short: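 Cell-based qHTS: Tsc2-/- p53-/- MEF, 24 h cpd, 37 °C; fix/perm, anti-phospho-S6 Alexa-488 + PI; Acumen 488 nm scan; pS6/PI ratio, % positive cells; rapamycin 7.5 nM = inhibition ref; PI count = viability.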

Row | SMILES | activity change, negative = inhibition
1 | COc1ccc(NC(=O)Cn2c(=O)c3ccccc3n3nncc23)c(OC)c1 | inactive: -13.2%
2 | Cc1ccc(CNC(=O)C(C)n2nc(C)c3sc4ccccc4c3c2=O)cc1 (configuration not stated) | inactive: 3.02%
3 | COc1cccc(C(=O)Oc2c(Sc3ccc(C)cc3)c(C)nn2C(C)(C)C)c1OC | inactive: 1.61%
4 | COC(=O)c1ccccc1NC(=O)CN1C(=O)COc2ccc(Cl)cc21 | inactive: 0.215%
5 | COc1ccc(NC(=O)c2cc(S(=O)(=O)N3CCCC3)ccc2OC)cc1 | inactive: -0.079%
6 | CC(C)Cc1nn2c(=O)cc(COC(=O)c3ccc(NC(=O)C4CCCCC4)cc3)nc2s1 | inactive: 0%
7 | CCOc1ccccc1NC(=O)c1ccc(F)c(S(=O)(=O)N2CCN(c3ccc(F)cc3)CC2)c1 | inactive: 13%
8 | CCOc1ccc(C(=O)NCC(c2cccs2)S(=O)(=O)c2ccccc2)cc1 (configuration not stated) | inactive: -19.5%
9 | COc1ccc(Nc2nc3ccc(Cl)cc3nc2-n2nc(C)cc2C)cc1 | inactive: -1.34%
10 | CCOc1ccc(C(=O)NCCSc2c(C)[nH]c3ccccc23)cc1OCC | inactive: -1.35%
11 | CCOc1ccc(NC(=O)c2cc(C)nc3c2c(C)nn3-c2ccc(C)cc2)cc1 | inactive: 2.74%
12 | Cc1cccc(C(=O)N2CCc3cc(CNC(=O)CSc4ccccc4)ccc32)c1 | inactive: -19.3%
13 | Cc1ccccc1CNC(=O)CSc1nnc(C)c2c(C)n(-c3ccccc3)nc12 | inactive: -3.8%
14 | COc1ccccc1CNC(=O)c1cc2c(s1)-c1ccc(Cl)cc1SC2 | inactive: -1.35%
15 | CCOc1cccc(CC(=O)N2CCc3c([nH]c4ccc(OC)cc34)C2c2ccc(F)cc2)c1OCC (configuration not stated) | inactive: -0.233%
16 | O=C(COc1ccc(Cl)cc1)Nc1nnc(S(=O)(=O)N2CCCCCC2)s1 | inactive: 0%
17 | Cc1ccn2c(Nc3ccc4c(c3)OCCO4)c(-c3ccccc3O)nc2c1 | inactive: -8.07%
18 | CCCCOc1ccc(C2C(C(=O)Nc3ccccc3OC)=C(C)Nc3nnnn32)cc1OC (configuration not stated) | inactive: -19.3%
19 | CC(=O)N1CCCc2cc(S(=O)(=O)N3CCC(C(=O)Nc4ccc(C)cc4Cl)CC3)ccc21 | inactive: 0.961%
20 | CCN(CC)CCCNC(=O)CCC(=O)NNc1nc2ccccc2c2nc(C)nn12 | inactive: -5.51%
21 | COc1ccccc1N1CCN(C(CNC(=O)C(=O)NCc2cccnc2)c2cccnc2)CC1 (configuration not stated) | inactive: -0.903%
22 | CCOC(=O)c1c(NC(=O)c2cc(-c3ccc(OC)c(OC)c3)on2)sc(C)c1C | inactive: 13.9%
23 | Cc1cc(NC(=O)Nc2nnc(N3CCCCCC3)s2)ccc1Br | inactive: -1.89%
24 | Cc1ccc(-c2nn(-c3ccccc3)c3c2cnc2ccccc23)cc1C | inactive: 5.01%
25 | Cc1ccc(NC(=O)c2oc3c(c2C)-c2[nH]ncc2CC3)c(Cl)c1 | inactive: -1.83%

Row | SMILES | activity change, negative = inhibition
26 | Cc1ccc(S(=O)(=O)N(CCc2ccccc2)CC(=O)Nc2ccccc2C)cc1 | inactive: -7.21%
27 | Cn1cnc(S(=O)(=O)N2CCCC(C(=O)NCc3ccc(F)cc3)C2)c1 (configuration not stated) | inactive: 14.3%
28 | COc1ccc(OC)c(-c2noc(N3CCN(c4ccc(Cl)cc4)CC3)n2)c1 | inactive: -4.85%
29 | Cc1cc(C)cc(NS(=O)(=O)c2ccc3[nH]cc(C(=O)NCCc4ccccc4)c(=O)c3c2)c1 | inactive: 0.436%
30 | CCOc1ccc(NC(=O)C(=O)NCCc2csc(-c3ccc(C(F)(F)F)cc3)n2)cc1 | inactive: 0.279%
31 | Cc1ccc(C(=O)N2CCn3c4c(c5cc(C)ccc53)CCCC42)cc1 (configuration not stated) | inactive: -27.8%
32 | COc1ccc(CCNC(=O)c2ccc3c(c2)N(Cc2ccccc2)CCS3)cc1OC | inactive: -5.77%
33 | CC(C)NC(=O)c1ccc2c(c1)N(Cc1cccc(Cl)c1)C(=O)c1ccccc1S2=O (configuration not stated) | inactive: -0.245%
34 | CCc1ccccc1NS(=O)(=O)c1ccc2c(c1)CCCN2C(=O)C1CCC1 | inactive: -9.46%
35 | Cc1nn2c(=O)cc(COC(=O)c3ccccc3NC(=O)c3cccs3)nc2s1 | inactive: 0%
36 | COc1ccc(NC(=O)CN2CCN(Cc3ccccc3Cl)S2(=O)=O)cc1Cl | inactive: 2.41%
37 | COC(=O)c1sc2c(c1C)c(=O)n(-c1ccccc1)c(=O)n2CC(=O)Nc1cccc(C)c1 | inactive: -16%
38 | COc1cc(OC)c(NC(=O)N2CCC(CN3CCOCC3)CC2)cc1Cl | inactive: -0.174%
39 | CN1CCN(Cc2c(O)ccc3cc(-c4ccc(Cl)cc4)c(=O)oc23)CC1 | inactive: 0%
40 | CCN(C(=O)Cn1c(=O)oc2cc(S(=O)(=O)N3CCCCC3)ccc21)c1ccccc1 | inactive: 0.473%
41 | Cc1c(C)c2cc3c(c(C)c2oc1=O)OCN(CCc1ccccc1)C3 | inactive: -9.54%
42 | COc1cccc(CNC(=O)c2c(C)oc3ncnc(N4CCOCC4)c23)c1 | inactive: -2.4%
43 | COc1ccc(N2CCN(C(=O)C3Cc4ccccc4N3C(C)=O)CC2)cc1 (configuration not stated) | inactive: 0%
44 | CCOc1cc(CNC(=O)C2CCN(c3nc4ccccc4[nH]3)CC2)cc(OCC)c1OCC | inactive: 7.69%
45 | COc1cccc(CC(=O)Nc2ccc(-c3nc4ccccc4s3)cc2Cl)c1 | inactive: -1.53%
46 | Cc1cc(C)cc(N2CCn3c2nc2c3c(=O)n(C/C=C/c3ccccc3)c(=O)n2C)c1 | inactive: -8.46%
47 | Cc1ccc(C)c(NC(=O)CCOc2ccccc2)c1 | inactive: -2.42%
48 | Cc1ccc2nc(-c3ccc(F)cc3)c(NC(C)(C)CC(C)(C)C)n2c1 | inactive: -0.248%
49 | Cc1c(Cl)cccc1NC(=O)CSc1ccc(-c2ccccn2)nn1 | inactive: 0.497%
50 | O=C(NCc1cccc(Cl)c1)c1cc2c(s1)-c1ccccc1SC2 | inactive: -2.7%

Row | SMILES | activity change, negative = inhibition
51 | O=C(Cn1c(=O)n(-c2ccc(Cl)cc2)c(=O)c2c3c(sc21)CCCCC3)Nc1cccc(Cl)c1 | inactive: -8.83%
52 | Cc1ccc2cccc(NC(=O)c3cccc4c(Br)cccc34)c2n1 | inactive: 9.8%
53 | COc1cccc(CNS(=O)(=O)c2ccc3c(c2)CC(C)N3C(=O)C2CCC2)c1 (configuration not stated) | inactive: -2.08%
54 | COc1ccc(C)cc1NC(=O)C(=O)NCC(c1cccnc1)N1CCN(c2ccccc2F)CC1 (configuration not stated) | inactive: -3.17%
55 | Cc1cc(C)c2nc(N3CCCC(C(=O)NCc4ccccc4F)C3)sc2c1 (configuration not stated) | inactive: 0%
56 | CCn1c(=O)n(-c2ccc3c(c2)OCO3)c2nc(-c3cccc(OC)c3OC)nc(C(N)=O)c21 | inactive: 1.24%
57 | CCCn1cc(S(=O)(=O)c2ccc(C)c(C)c2)c(=O)c2cc(F)c(N3CCC(C)CC3)cc21 | inactive: 0.543%
58 | COc1ccc(N2CCN(C(=O)c3ccc4c(c3)N(Cc3cccc(Cl)c3)C(=O)c3ccccc3S4(=O)=O)CC2)cc1 | inactive: -3.59%
59 | CCc1ccccc1NC(=O)Cn1c(=O)n(-c2cccc(C)c2)c(=O)c2c1c1cc(OC)ccc1n2C | inactive: -2.08%
60 | CC(C)OCCCNC(=O)Cc1ccc(NC(=O)N2CCCCc3ccccc32)cc1 | inactive: 0.721%
61 | CCOc1ccccc1N(C)C(=O)c1cc2c(s1)-c1ccccc1OC2 | inactive: -2.02%
62 | CCOC(=O)CC(NC(=O)c1cc2c(=O)n3cccc(C)c3nc2s1)c1ccc(OCC)c(OC)c1 (configuration not stated) | inactive: 0.686%
63 | Cc1ccc(NC(=O)Cn2c(=O)n(CC(=O)NCCc3ccccc3)c(=O)c3ccccc32)cc1C | inactive: 0.394%
64 | CCCCc1nc(SCC(=O)Nc2ccc(S(N)(=O)=O)cc2)n[nH]1 | inactive: 3.48%
65 | COc1cccc(NC(=O)C2CCN(S(=O)(=O)c3c(C)noc3C)CC2)c1 | inactive: -6.46%
66 | Cc1ccc(C(=O)COC(=O)c2cc(-c3cccs3)nc3ccccc23)cc1 | inactive: 6.13%
67 | CCc1cccc(NC(=O)Nc2cn(C)c(=O)c3ccccc23)c1 | inactive: 0.0361%
68 | Cc1ccc(S(=O)(=O)c2cn(CC(=O)Nc3ccc(F)cc3)c3cc4c(cc3c2=O)OCO4)cc1 | inactive: -14.1%
69 | COc1ccc(-c2noc(CCC(=O)Nc3cccc(C)c3C)n2)cc1OC | inactive: 1.52%
70 | Cc1cccc(NC(=O)CSc2nc(=O)n(CCN3CCOCC3)c3c2CCC3)c1C | inactive: 0.346%
71 | CCCC(=O)NCc1nc2cccnc2n1Cc1ccc(F)cc1 | inactive: 2.4%
72 | Cc1cccc(Cn2nnc3c(=O)[nH]c(C4CCN(C(=O)c5ccccc5F)CC4)nc32)c1 | inactive: -4.83%
73 | O=C(Nc1cc(-c2nc3ccccc3o2)ccc1Cl)c1cccc2c(Cl)cccc12 | inactive: 2.38%
74 | Cc1ccc(NC(=O)Cn2c(=O)n(Cc3ccc4c(c3)OCO4)c(=O)c3ccc(C(=O)NC4CCCCC4)cc32)cc1 | inactive: 5.32%
75 | CCOC(=O)c1ccc(NC(=O)Cc2coc3cc(C)cc(C)c23)cc1 | inactive: -10.6%

Row | SMILES | activity change, negative = inhibition
76 | COc1ccc(S(=O)(=O)NCc2cccn2Cc2cccc(C)c2)cc1OC | inactive: 0%
77 | CCCCc1nn2c(=O)cc(COC(=O)c3ccccc3NC(=O)C3CCCCC3)nc2s1 | inactive: 1.11%
78 | CCN(C(=O)CSc1nnc(C)n2c1cc1occc12)c1ccccc1 | inactive: -2.15%
79 | CCOc1ccc(NC(=O)c2cc3c(=O)n4cccc(C)c4nc3s2)cc1 | inactive: 1.24%
80 | Cc1cc([N+](=O)[O-])ccc1NC(=O)CSc1nccn1C | inactive: -0.561%
81 | O=C(CSc1cn(CC(=O)N2CCOCC2)c2ccccc12)Nc1ccccc1C(F)(F)F | inactive: -0.834%
82 | COc1ccc(CNC(=O)c2cnc(N3CCCC3)nc2C)cc1 | inactive: 10.1%
83 | CCOC(=O)CSc1nc2c([nH]c3ccccc32)c(=O)n1-c1ccc(OCC)cc1 | inactive: -5.5%
84 | Cc1ccccc1C(=O)Nc1nc2c(s1)CC(C(C)(C)C)CC2 (configuration not stated) | inactive: 0%
85 | COc1ccc(-c2c(C)c3ccc(O)c(CN4CCN(C)CC4)c3oc2=O)cc1OC | inactive: 4.35%
86 | Cc1cccc2sc(N(Cc3cccnc3)C(=O)C3CCCCC3)nc12 | inactive: -3.79%
87 | COc1ccc(S(=O)(=O)c2cn(CC(=O)Nc3ccccc3)c3ccc(Cl)cc3c2=O)cc1 | inactive: -11.2%
88 | COc1ccc(CSc2nc3ccncc3n2Cc2nc(-c3ccc(OC)c(OC)c3)oc2C)cc1 | inactive: -4.72%
89 | COc1ccccc1CNC(=O)Nc1ccc2c(c1)N(C)C(=O)c1ccccc1S2 | inactive: -23.6%
90 | O=C(CSc1nc2c([nH]c3ccccc32)c(=O)n1-c1ccc(F)cc1)N1CCCCCC1 | inactive: -15.2%
91 | Clc1cccc(-c2noc3ncnc(NC4CCCCC4)c23)c1 | inactive: -13.3%
92 | COc1ccc(Br)cc1CNC(=O)CCC(=O)N1CCSc2ccccc21 | inactive: -3.37%
93 | COc1cc(NC(=O)CCc2c(C)nc3c(c(C)nn3-c3ccccc3)c2C)cc(OC)c1OC | inactive: 3.13%
94 | CN1C(=O)C2CCCCN2c2ccc(C(=O)NCc3ccccc3Br)cc21 (configuration not stated) | inactive: -1.52%
95 | COc1cccc2cc(-c3nc(-c4cccs4)no3)c(=O)oc12 | inactive: -21.4%
96 | CCOC(=O)c1c(C)c(C(=O)NCCc2ccc(OC)cc2)c(C)n1CC | inactive: -0.162%
97 | Cc1ccc(NS(=O)(=O)c2c(C(=O)N3CCCCCC3)c(C)n(C)c2C)cc1F | inactive: 0%
